Here are results for 24 sequences from the supplement of paper PMC11417369.

Some of the results follow.

This assay relates to PfAP2-HC AP2 domain (GST-tagged). In words: gcPBM binding intensity (ln(normalized median fluorescence intensity)); higher = stronger DNA binding. A digest of the protocol:
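After 1 h on an Agilent 4 × 180k array of primer-extended double-stranded 36-bp intergenic genomic probes and negative controls, bound GST-tagged P. falciparum DNA-binding domains were detected with Alexa488 anti-GST antibody and scanned at 488 nm. The domains had been expressed in E. coli, and binding took place in 1× PBS with 1% milk, 0.2 mg/ml BSA, 0.5% salmon testes DNA and 0.03% Triton X-100. Binding intensity is the highest Masliner-normalised natural-log median intensity across replicate spots of either probe orientation.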
As to “ACCTAAAATAACTACACACACATAAAAAAAAAAAAA [CACACA_site2529]”, the “gcPBM binding intensity (ln)” value was 10.2.
For “GTTATTATATATATGTGTACTTAAAAATTTTATGTC [XGTACX_site6084]”, the “gcPBM binding intensity (ln)” value was 9.68.
For “TATAACAAAAAAAAATAAAAAATAAAACTATATATA [CACACA_negctrl_site504]” the value was 9.6; for “AATAAAAAAAAAATAAATTTAATAATAATAATAAAA [CACACA_negctrl_site569]”, 9.51.
For “TTTATATATTTTAGGAGTACATTAAATTATACCTTA [XGTACX_site5600]” the value was 9.42.
With “TGTATATATATTTATGCATGCTGTGTGTATTCTTTT [TGCATGCA_site74]”, the “gcPBM binding intensity (ln)” value is 10.1.
Then “AAAAAAAAAAAAAAAACACACAGAAATATATATATA [CACACA_site4611]”, with 9.72.
For “AAAGAAGGGAAACACACACACACACCCACAAAAAAA [CACACA_site3766]” the value was 11.4; for “TATATAAGGAAATATTGTACTTTTATATTTATATTA [XGTACX_site3814]”, 9.45; for “ATATAAAAATATAATACACACATAAAATATATTATA [CACACA_site969]”, 9.97.
Then “TTTCTTTTTATATTCACACATAAATATATATATATA [CACACA_site6053]”, with 9.63.
As for “AAAAAAAAAAAACACACACACACATACCCATACATA [CACACA_site5575]”, the “gcPBM binding intensity (ln)” value turned out to be 11.3.
Regarding “TACATTTAAAAAAAAACACACATATATATATATATA [CACACA_site2535]”, the “gcPBM binding intensity (ln)” value came out at 9.92.
For “ATATATTTGTATAATAGTACGTACAGGCAAAATATA [XGTACX_site7396]” the value was 9.84; for “TGTATGCTTACATAATGTACGGAAAAATAAAGGCAT [XGTACX_site6923]”, 9.7.
For the sequence “ATATATAAATAATGTTGTACGTATTTCAAAAGTATG [XGTACX_site3363]”, the “gcPBM binding intensity (ln)” value is 9.73.
For “ATAATAATAATAAAAAGTACAAATTATTATATATAT [XGTACX_site5160]” the value was 9.71; for “TGCTCTCTCTTGTTGTGTACATAATACAATATATAT [XGTACX_site7427]”, 10.
For “ATAATAAGAACTCAGTGTACTATCCTTTGAATTAAC [XGTACX_site8117]”, the “gcPBM binding intensity (ln)” value came out at 9.62.
Then “AACGTCTTTTTTTTTTTTTTTCTTTTTTTTTTTATT [CACACA_negctrl_site303]”, with 9.86.
Consider “TAATTATTTTCGGTACGTACTAATGTATATATAATT [XGTACX_site3895]”, for which the “gcPBM binding intensity (ln)” value worked out at 9.59.
For “TAATAATTTTTTTTTTTTTTTTACGAAAATATGATT [GTGCAC_negctrl_site323]” the value was 9.3; for “ACACATCAAATATAAAAAAAAAATAACTATAAATAA [CACACA_negctrl_site587]”, 9.84.
For “TATAAAAGTGGACACACACACATATATATATATATA [CACACA_site4673]” the value was 9.96.
